# Counter-ions that a name gives are not always drawn. Screen size: about 1,800 compounds; about 50 (3%) showed activity. The list shows a part of the results.
# Tested on: mouse p16Ink4a+/- lung fibroblasts (INKBRITE, bleomycin-injured)
# Assay: percentage of GFP+ (p16Ink4a+) fibroblasts among all cells in well; higher = less depletion of p16Ink4a+ cells, active = 20 or less
# Details: 1 µM; 3 days
# 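Also: fibroblasts sorted 14 days after bleomycin, GFP+ and GFP− mixed 1:1 in 384-well plates (GFP− as in-well control), imaged after Hoechst and NucView530 staining, reference wells lacked compound.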
row,Compound,percentage of GFP+
1,CN(C)c1ccc(-c2nc3c(N4CCN(CC(=O)Nc5nccs5)CC4)c(Cl)cnc3[nH]2)cc1,inactive: 45.4%
2,"CCCOc1ccc2[nH]c(NC(=O)OC)nc2c1 [Oxybendazole, Oxibendazole]",inactive: 20.8%
3,O=C(O)Cc1cc(I)c(Oc2ccc(O)c(I)c2)c(I)c1 [Tiratricol],inactive: 53.7%
4,CCCCCCCCOc1ccccc1C(=O)Nc1ccc(C(=O)OCC[N+](C)(CC)CC)cc1 [Otilonium Bromide],inactive: 47.1%
5,C[C@@H]1O[C@@H](Oc2c(-c3cc(O)c(O)c(O)c3)oc3cc(O)cc(O)c3c2=O)[C@H](O)[C@H](O)[C@H]1O [Myricitrin],inactive: 43.9%
6,O=C1NCC2(CCN(CCc3ccccc3)CC2)O1 [Fenspiride],inactive: 44%
7,CNCCCC12CCC(c3ccccc31)c1ccccc12 [Maprotiline],inactive: 38.1%
8,OC[C@H]1O[C@@H](Oc2cc(O)cc(/C=C/c3ccc(O)cc3)c2)[C@H](O)[C@@H](O)[C@@H]1O [Piceid],inactive: 42.3%
9,CCNC(=O)CCC/C=C\C[C@@H]1[C@@H](/C=C/C(O)CCc2ccccc2)[C@@H](O)C[C@@H]1O (stereo not given in full) [Bimatoprost],inactive: 33.1%
10,CCCNC(=O)NS(=O)(=O)c1ccc(Cl)cc1 [Chlorpropamide],inactive: 48.7%
11,O=C(NS(=O)(=O)c1ccc(Br)s1)c1ccc(Cl)cc1Cl [Tasisulam],inactive: 45%
12,CNCc1ccc(-c2[nH]c3cc(F)cc4c3c2CCNC4=O)cc1 [Rucaparib],inactive: 45.1%
13,CCCCCCCN(CC)CCCC(O)c1ccc(NS(C)(=O)=O)cc1 (stereo not given) [Ibutilide],inactive: 38.7%
14,COc1ccccc1N1CCN(CCN2C(=O)CC3(CCCC3)CC2=O)CC1 [Bmy 7378 Dihydrochloride],inactive: 43.4%
15,Oc1cc2c(cc1O)[C@@H]1c3ccc(O)c(O)c3OC[C@]1(O)C2 [Hematoxylin],inactive: 37.7%
16,CC[C@@H]([C@H](C)O)n1ncn(-c2ccc(N3CCN(c4ccc(OC[C@@H]5CO[C@@](Cn6cncn6)(c6ccc(F)cc6F)C5)cc4)CC3)cc2)c1=O [Posaconazole],inactive: 25.4%
17,Cc1ccc(-n2nc(C)c(N=Nc3cccc(-c4cccc(C(=O)O)c4)c3O)c2O)cc1C [Eltrombopag],inactive: 46.6%
18,CNCCc1ccccn1 [Betahistine],inactive: 43.8%
19,CC(=O)O[C@]1(C(C)=O)CC[C@H]2[C@@H]3C[C@H](C)C4=CC(=O)C=C[C@]4(C)[C@@]3(F)[C@@H](O)C[C@@]21C [Fluorometholone Acetate],inactive: 37.1%
20,Cc1ccnc2c1NC(=O)c1cccnc1N2C1CC1 [Nevirapine],inactive: 38.4%
21,NCCCCCC(=O)O [Aminocaproic Acid],inactive: 48.1%
22,CC(C)CCNC(=O)[C@H](CC(C)C)NC(=O)[C@H]1O[C@@H]1C(=O)O [Loxistatin Acid],inactive: 45.9%
23,CC(C)N(CCC(=O)c1ccc2ccccc2c1)Cc1ccccc1,inactive: 47.9%

row,Compound,percentage of GFP+
1,CCOc1cc([C@@H](CS(C)(=O)=O)N2C(=O)c3cccc(NC(C)=O)c3C2=O)ccc1OC [Apremilast],inactive: 45.5%
2,COc1ccc(-c2coc3cc(O)cc(O)c3c2=O)cc1 [Biochanin A],inactive: 35%
3,"O=C(O)CCCC[C@@H]1SC[C@@H]2NC(=O)N[C@@H]21 [Biotin, Vitamin B7]",inactive: 40%
4,Nc1ccc(S(=O)(=O)Nc2ncccn2)cc1 [Sulfadiazine],inactive: 56.3%
5,CC(C)CCN1c2nc(Nc3cc(F)c(O)c(F)c3)ncc2N(C)C(=O)C1C (stereo not given),inactive: 44.4%
6,CC(C(=O)O)c1cccc(C(=O)c2ccccc2)c1 (stereo not given) [Ketoprofen],inactive: 34.9%
7,Nc1ccc(S(=O)(=O)Nc2ccccn2)cc1 [Sulfapyridine],inactive: 44.1%
8,C=C1c2cccc(O)c2C(O)=C2C(=O)[C@]3(O)C(O)=C(C(N)=O)C(=O)[C@@H](N(C)C)[C@@H]3[C@@H](O)[C@H]12 [Methacycline],inactive: 41.2%
9,CCOC(=O)[C@H]1O[C@@H]1C(=O)N[C@@H](CC(C)C)C(=O)NCCC(C)C [Aloxistatin],inactive: 52.8%
10,CCn1cc(C(=O)O)c(=O)c2cc(F)c(N3CCNC(C)C3)c(F)c21 (stereo not given) [Lomefloxacin],inactive: 44%
11,Nc1ncnc2[nH]nc(Nc3ccc(F)cc3)c12,inactive: 46.8%
12,O=C1c2ccc(Nc3ccc(F)cc3F)cc2CCc2ccc(OC[C@H](O)CO)cc21 [Skepinone-L],inactive: 45.4%
13,CO/N=C(/C(=O)N[C@H]1C(=O)N2C(C(=O)O)=C(Cn3ccc(=N)n3CCO)CS[C@H]12)c1csc(N)n1 [Cefoselis Sulfate],active: 17.3%
14,Cc1cccc(-c2[nH]c(C(C)(C)C)nc2-c2ccc3c(c2)OCO3)n1,inactive: 55.4%
15,Nc1nc(Cl)nc2c1ncn2[C@H]1C[C@H](O)[C@@H](CO)O1 [Cladribine],inactive: 30.4%
16,CC(=O)c1c(C)c2cnc(Nc3ccc(N4CCNCC4)cn3)nc2n(C2CCCC2)c1=O [Palbociclib],inactive: 34.5%
17,COC(=O)Nc1nc2cc(Sc3ccccc3)ccc2[nH]1 [Fenbendazole],inactive: 20.8%
18,C#C[C@]1(O)CC[C@H]2[C@@H]3CCc4cc(O)ccc4[C@H]3CC[C@@]21C [Ethinyl Estradiol],inactive: 40.7%
19,CN1C(CCl)Nc2cc(Cl)c(S(N)(=O)=O)cc2S1(=O)=O (stereo not given) [Methyclothiazide],inactive: 41.4%
20,CC(C(=O)O)c1ccc2c(c1)Cc1cccnc1O2 (stereo not given) [Pranoprofen],inactive: 39%
21,CCOC(=O)[C@H](CCc1ccccc1)N[C@@H](C)C(=O)N1Cc2cc(OC)c(OC)cc2C[C@H]1C(=O)O [Moexipril],inactive: 44.9%
22,"C[C@@](Cc1ccc(O)c(O)c1)(NN)C(=O)O [S-(-)-carbidopa, Carbidopa]",inactive: 47.3%
